According to PubChem BioAssay AID463173 (ICCB-Longwood Screening Facility, Harvard Medical School, 2010):
Out of some 52,000 compounds screened, about 1,700 (3.3%) were called active. No stated cut-off is given here; in the data, active means survival mostly below about 52% (no sharp cut-off); inactive means mostly above about 56%. Some of the results follow.

Each compound was assayed on Wild type (assay: S. aureus survival, RN4220 and DeltatarO strains – OD600, teichoic acid synthesis inhibitors, primary screen (AID 463173)). Details: S. aureus RN4220 wild type/DeltatarO growth, OD600, 18 h, active compounds read low, screened at 18.75 µg/mL (by protocol).

SMILES | survival
CCOc1ccc(-n2c(=O)c3c(C)c(C)sc3n(CC(=O)Nc3ccc(CC)cc3)c2=O)cc1 | inactive: 71%
CCN1C(=O)N(c2ccc(C(C)=O)cc2)S(=O)(=O)c2ccccc21 | inactive: 51%
CSc1ccc(CCNC(=O)Cn2ncn3c(cc4ccccc43)c2=O)cc1 | inactive: 77%
Cc1ccc(CN2C(=O)C(=O)c3cc(Br)cc(C)c32)cc1 | inactive: 40%
CCN(C(=O)c1cc2c(=O)n(CC)c3ccccc3c2s1)c1cccc(C(F)(F)F)c1 | inactive: 89%
Cn1nc(-c2ccc(OCC(=O)Nc3ccc(Cl)cc3)cc2)c2ccccc2c1=O | inactive: 111%
CC1C(=NO)C(C)C(c2ccccc2)NC1c1ccccc1 (configuration not stated) | inactive: 113%
Cc1cccc(-c2cc3nc(C)cc(NCCCn4ccnc4)n3n2)c1 | inactive: 115%
O=C1NC2(CCCCC2)C(=O)N1c1ccc(Cl)cc1 | inactive: 120%
COc1ccc(Br)cc1CNC(=O)c1cnc2sc(N3CCCCCC3)nn2c1=O | inactive: 78%
Cc1ccc(-c2nc(CCNC(=O)C(=O)Nc3ccc(C)c(Cl)c3)cs2)cc1 | inactive: 47%
CCCOc1ccc(CNC(=O)CCCN2C(=O)CSc3c2c(C)nn3-c2ccccc2)cc1 | inactive: 82%
COc1ccccc1C(=O)Nc1ccccc1C(=O)OCc1cc(=O)n2ccsc2n1 | active: -6%
CCOC(=O)c1sc(NC(=O)c2nc3nc(C)cc(C(F)F)n3n2)c(C(=O)OC(C)C)c1C | inactive: 68%
COc1ccc(C2(N3CCN(c4cc(C)ccc4C)CC3)C(=O)c3ccccc3C2=O)cc1 | inactive: 84%
CCOc1ccccc1NC(=O)CSc1nc2cc(OC)c(OC)cc2c2nc(CCn3c(C)nc4ccccc43)nn12 | inactive: 77%
CCCN(CCC)C(=O)Cn1c(SCc2cccc(F)c2)nc2cccnc21 | inactive: 65%
N#Cc1cccc(NC(=O)C2CCN(S(=O)(=O)c3ccc4c(c3)CCCN4C(=O)C3CCC3)CC2)c1 | inactive: 68%
Cc1ccc2oc(C(=O)NCC(c3ccc(Cl)cc3)N3CCOCC3)c(C)c2c1 (configuration not stated) | inactive: 61%

SMILES | survival
Cc1nc(-c2ccc(F)cc2)sc1CCNC(=O)c1ccccc1C(F)(F)F | inactive: 113%
CCc1ccc(C2C(C#N)=C(N)OC(C)=C2C(=O)OC)cc1 (configuration not stated) | inactive: 108%
Cc1ccc(CNC(=O)c2cc3c(=O)n4cccc(C)c4nc3s2)cc1 | inactive: 86%
Cc1ccc(CNC(=O)CN2C(=O)C3CCCCN3c3ccc(C(=O)N(C)C)cc32)cc1 (configuration not stated) | inactive: 78%
COc1ccccc1NC(=O)CN1C(=O)C(C)(C)c2ccccc21 | inactive: 87%
CN(C)c1cc(N)c2ccccc2n1 | inactive: 113%
Cc1ccc(S(N)(=O)=O)cc1NC(=O)c1c(-c2c(Cl)cccc2Cl)noc1C | inactive: 75%
Cc1cccc(CSc2ncc(Cl)c(C(=O)Nc3nnc(C)s3)n2)c1 | inactive: 75%
CC1=C(C(=O)Nc2ccccc2C)C(c2sccc2C)n2ncnc2N1 (configuration not stated) | inactive: 69%
Cc1ccccc1CSc1nc2c([nH]c3ccccc32)c(=O)n1-c1ccccc1 | inactive: 133%
CCN(CC)CCNC(=O)CN1C(=O)CSc2ccc(S(=O)(=O)N3CCOCC3)cc21 | inactive: 73%
Cc1ccc(/C=C/c2onc(C)c2S(=O)(=O)N2CCC(C(=O)Nc3cccc(C#N)c3)CC2)cc1 | inactive: 70%
CCOC(=O)COc1ccc(CC)cc1C(=O)c1ccn2nc(-c3ccc(C)cc3)cc2n1 | inactive: 105%
CCOc1ccc(-c2cc(NC(=O)Nc3ccccc3Cl)c(C(=O)OC)s2)cc1 | inactive: 50%
O=C(NCCCN1CCN(c2ccccc2F)CC1)c1ccc2nc(Cc3ccccc3)oc2c1 | inactive: 64%
Cc1ccc(-c2nnc(Nc3ccc(F)cc3)c3ccccc23)cc1S(=O)(=O)NC(C)C | inactive: 81%
Cc1ccc(C(=O)N2CCN(c3ccccc3)CC2)cc1NC(=O)c1nsc2ccccc12 | inactive: 73%
N#Cc1c(C(F)(F)F)cc(-c2cccs2)nc1SCC(=O)Nc1cccc(Br)c1 | inactive: 81%
CCc1nnc2c(NCc3ccccc3)nc3ccccc3n12 | inactive: 94%

SMILES | survival
CCN(CC)S(=O)(=O)c1ccc2c(c1)c(=O)c(C(=O)N1CCN(c3ccc(OC)cc3)CC1)cn2C | inactive: 78%
CCc1ccccc1NC(=O)c1nc2nc(C)cc(C(F)F)n2n1 | inactive: 74%
CCCN(CCC)CCCNC(=O)Cn1ncn2c(cc3sc(CC)cc32)c1=O | inactive: 80%
Cc1ccc(CNC(=O)CN2N=C(c3ccc(C)cc3)CCC2=O)cc1 | inactive: 80%
CC(C)c1ccc(NC(=O)C2CCCN(S(=O)(=O)c3ccc4[nH]c(=O)oc4c3)C2)cc1 (configuration not stated) | inactive: 51%
Cc1cccc(-c2nnc(SCC(=O)Nc3ccc(C)c(C)c3)o2)c1 | inactive: 87%
Cc1nnc(C)c2c(C)n(-c3ccc4c(c3)OCO4)c(C)c12 | inactive: 111%
Cn1c(-c2cccc(Br)c2)cnc1NCc1cccc(F)c1 | inactive: 27%
CCCS(=O)(=O)c1c(S(=O)(=O)CCC)c2cc(C(C)(C)C)ccn2c1C(=O)c1ccc(C)cc1 | inactive: 78%
O=C(/C=C/c1ccco1)OCCN1CCOCC1 | inactive: 92%
COc1cc(SC)ccc1C(=O)N1CCn2c3c(c4cc(C)ccc42)CCCC31 (configuration not stated) | inactive: 85%
COc1ccc(Nc2nnc(-c3cc4cc(Cl)ccc4oc3=O)s2)cc1 | inactive: 73%
COc1cccc(CN2C(=O)c3ccccc3C2C(=O)NCCc2ccccc2)c1 (configuration not stated) | inactive: 90%
CCC(C)NC(=O)c1ccc(Cn2c(=O)c3cccn3c3cccnc32)cc1 (configuration not stated) | inactive: 118%
Cc1ccc(C(=O)Nc2c(C)nc3ccccn3c2=O)cc1 | inactive: 88%
Cc1ccc(C)c(N2CCN(C(=O)CCc3c(C)nn(-c4ccc(N5CCCC5)nn4)c3C)CC2)c1 | inactive: 77%
Cc1ccc(N2C(=O)SC(N(C)c3ccccc3)C2=O)cc1 (configuration not stated) | inactive: 112%
COc1ccccc1CNC(=O)CSc1nc2nc(C)c(Cc3ccccc3C)c(C)n2n1 | inactive: 135%
O=C(NCc1ccc(Cl)cc1)C1CCN(C(=O)c2cnn(-c3ccccc3)c2-n2cccc2)CC1 | inactive: 87%
